# Laboratory results reported in the supplement of paper PMC4723716.
# The full ranking holds about 3,600 compounds; the median of “viability index relative to DMSO control” is about 0.81, and the lowest 2% start at about 0.13. Some of the results follow.
# Tested on: Plasmodium falciparum NF54 stage V gametocytes
# Assay: viability index relative to DMSO control (fraction); higher = less gametocyte killing
# Settings: 1.25 µM, incubation time: 72 h
# 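Further: 384-well serum-free SaLSSA: MitoTracker Red CMXRos staining with saponin lysis, high-content imaging, treated-well particle count divided by plate-mean count of DMSO wells.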
row,SMILES,viability index
1,CCCCCc1ccc(-c2cn3nc(CCCCC)sc3n2)cc1,0.726
2,CCOC(=O)c1cnn(-c2ccnc3cc(Cl)ccc23)c1CNC(C)c1ccco1 (stereo not given),1.4
3,Cc1ccc(F)cc1NC(=O)c1cc(Cl)ccc1Nc1ccccc1,0.343
4,COc1cccc2c1OCC(CN1CCC(C(=O)Nc3ccc(-n4cccn4)cc3)CC1)=C2,1.03
5,Oc1cccc2ccc[n+](CC(O)Cn3c4ccccc4c4ccccc43)c12 (stereo not given),0.757
6,Cc1cccc(NC(=O)c2ccc3ccccc3n2)n1,0.529
7,O=S(=O)(ON=C1CCCc2sc(Cl)cc21)c1ccccc1,0.649
8,CC(=O)c1ccc(OCc2cc(C(=O)N3CCCCC3c3cccnc3)no2)cc1 (stereo not given),0.673
9,COc1ccc(C(=O)n2nc(N)c3cc4ccc(C)cc4nc32)cc1[N+](=O)[O-],0.791
10,COC(=O)c1c(-c2ccccc2Cl)csc1N,0.873
11,CCCC(C(=O)OCC)C(C)=NNc1ccccc1[N+](=O)[O-] (stereo not given),0.692
12,Cc1ccc(-n2c(-c3ccccc3)cc(C=NNC(=O)c3cccc(O)c3)c2-c2ccccc2)cc1,0.9
13,c1cc(-c2nc3ccccc3[nH]2)nc(-c2nc3ccccc3[nH]2)c1,0.946
14,COc1cc(C=C2SC(=Nc3ccccc3)NC2=O)ccc1OCc1ccccc1F,1.12
15,Cc1ccc(-c2nnc(N3CCOCC3)c3ccccc23)cc1S(=O)(=O)N1CCN(C)CC1,0.883
16,CC(C)(C)NC(=S)Nc1cccc(Cl)c1Cl,0.755
17,COc1ccc(-c2n(C)c3ccccc3[n+]2CC(=O)OC2CC(C)CCC2C(C)C)cc1 (stereo not given),0.376
18,CCCN1CCC(NC(c2ccccc2)c2ccc(Cl)cc2)CC1 (stereo not given),0.812
19,CCN1C(=Cc2ccc3cc(OC)ccc3[n+]2CC)Sc2ccc(NC(C)=O)cc21,0.803
20,COc1ccc(-c2csc3nc(COc4cccc(C)c4)nn23)c(O)c1,0.687
21,Cc1cc(N2CCN(C)CC2)nc2ccc(NC(=O)c3ccc(Br)o3)cc12,0.924
22,CC(C(=O)NN=C1CCN(C)CC1)N(c1ccccc1)S(C)(=O)=O (stereo not given),0.917

row,SMILES,viability index
1,Cc1cc([N+](=O)[O-])ccc1-c1ccc(C(=O)Nc2ccc(-c3nc4ccccc4[nH]3)cc2)o1,0.622
2,COc1cccc(OCCN2CCN(c3ncnc4c3cnn4-c3ccccc3)CC2)c1,1.09
3,O=C(COc1ccc(Cl)cc1)Nc1cccc(-c2nc3ncccc3o2)c1,0.857
4,CCN1C=CC(=Cc2ccc3cc(C)ccc3[n+]2C)C=C1,0.911
5,NC(Cc1ccccc1)C(=O)N1CCn2c(nc(-c3ccccc3)c2Nc2ccc3c(c2)OCO3)C1 (stereo not given),0.179
6,c1ccc(CN2CCC(Nc3ncnc4cc(-c5ccccc5)sc34)CC2)cc1,0.726
7,NS(=O)(=O)c1ccc(CCNC(=O)C=Cc2ccc3c(c2)OCO3)cc1,1.2
8,N#Cc1cc2nc3c(nc2cc1C#N)-c1ccccc1C3=O,0.0308
9,CCc1n(CC(=O)OC2CC(C)CCC2C(C)C)c2ccccc2[n+]1C (stereo not given),0.578
10,Cc1nc(NC(=N)N)nc2ccccc12,1.12
11,Cc1nc2cc(-c3ccc(Br)cc3)nn2c(O)c1C,0.906
12,Cc1ccc2[nH]c3c(NCCN4CCCC4)ncnc3c2c1,0.538
13,COc1ccc(CNc2ncnc3c2[nH]c2cc(OC)ccc23)cc1,0.74
14,CCOC(=O)C1=C(C)NC2=C(C(=O)CC(c3ccc(OC)c(OC)c3)C2)C1c1ccc(SC)cc1 (stereo not given),0.985
15,COC(=O)C1=C(C)NC2=C(C(=O)CC(c3ccc(OC)c(OC)c3)C2)C1c1cccc(O)c1 (stereo not given),0.81
16,Cc1cccc(NC(c2ccncc2)c2ccc3cccnc3c2O)n1 (stereo not given),0.75
17,COCCN1Cc2cccc(C(=O)Nc3ccc4c(c3)OCCO4)c2C1=O,0.992
18,CCCCN(CC)CCNC(=O)C1c2ccccc2C(=O)N(Cc2ccc(F)cc2)C1c1ccc(OC)cc1 (stereo not given),0.679
19,COc1cc(C2Nc3ccc4ccccc4c3C3=C2C(=O)CC(C)(C)C3)ccc1Oc1ccc([N+](=O)[O-])cc1C(F)(F)F (stereo not given),0.449
20,COc1cc(C(=O)Nc2c3c(nn2-c2cc(C)cc(C)c2)CSC3)cc(OC)c1OC,0.636
21,COc1ccc(NC(=O)Cn2ncc3ccccc32)cc1OC,0.751
22,CCOC(=O)c1ccc(N2C(=O)c3[nH]nc(C)c3C2c2ccccc2OC)cc1 (stereo not given),0.715

row,SMILES,viability index
1,OCCNc1nc(Nc2ccc(Br)cc2)nc2ccccc12,0.84
2,Clc1ccc(Nc2nc(Nc3ccc(Cl)cc3)c3ccccc3n2)cc1,1.01
3,Cc1ccc(S(=O)(=O)N=C2C=C(Sc3nc[nH]n3)C(=O)c3ccccc32)cc1,1.03
4,CCN1CCN(Cc2c(O)ccc3c(=O)c(Oc4ccccc4Br)c(C(F)(F)F)oc23)CC1,0.672
5,CCc1ccccc1NC(=O)C1c2ccccc2C(=O)N(CC(C)C)C1c1cccs1 (stereo not given),0.61
6,COC(=O)CC(NC(=O)c1ccc(C)cc1)c1ccc2c(c1)OCO2 (stereo not given),0.718
7,COc1ccc(CN(Cc2cc3cc(OC)c(OC)cc3[nH]c2=O)C(=S)NCCc2ccc(OC)c(OC)c2)cc1,0.979
8,CC(C)Nc1nc(-c2cccnc2)nc2ccccc12,1.12
9,OCCNc1nc(Nc2ccc(Cl)cc2)nc2ccccc12,1.31
10,OCCN(CCO)CC(O)Cn1c2ccc(Br)cc2c2cc(Br)ccc21 (stereo not given),0.917
11,CC(NCCN1CCNCC1)c1cc(C(C)(C)C)cc2c1CCC2(C)C (stereo not given),0.104
12,CN1CCCN(C(=O)C2CC23CCN(Cc2ccc(N(C)c4ccccc4)cc2)CC3)CC1 (stereo not given),0.548
13,CCN1CCC(N2C[C@H](n3cc(C(=O)OC)nn3)C[C@H]2C(=O)NCc2cccc(C(F)(F)F)c2)CC1,1.21
14,CCOC(=O)C1=C(C)NC2=C(C(=O)CC(c3ccc(OC)c(OC)c3)C2)C1c1ccc([N+](=O)[O-])cc1 (stereo not given),0.336
15,C[n+]1ccccc1C=Cc1cc(Br)ccc1O,0.819
16,Cc1ccc(CNC(=O)CSc2nc3ccsc3c(=O)n2CCCCCC(=O)NCCc2ccccc2)cc1,0.83
17,c1ccc2c(c1)ccc1cc3cccc[n+]3cc12,0.0821
18,CC1=C(C(=O)OC(C)C)C(c2ccc(Br)cc2)C2=C(CC(c3ccc(Cl)cc3)CC2=O)N1 (stereo not given),0.845
19,CC1=C(C(=O)OC(C)C)C(c2ccc(F)cc2)C2=C(CC(c3ccc(Cl)cc3)CC2=O)N1 (stereo not given),0.687
20,COc1cc2c(cc1OC)C1=NC(=O)C(C(C)C)N1C(SCc1csc(Cl)n1)=N2 (stereo not given),0.767
21,CCOc1ccc(-c2noc(-c3ccncc3)n2)cc1OCC,0.956
